For some assays here: What follows is the remainder of the data, with few or none of the strong results. Only a part is listed here, and it is no random draw.
What was measured:
Conditions in all cases: concentration: 1 μM,replicates: in singlicate; n = 1
MEK3 = system: T1, MEK3
T1 construct: gene MAP2K3

MEK4 = system: T2, MEK4
T2 construct: gene MAP2K4

MEK5 = system: T3, MEK5
T3 construct: gene MAP2K5

MEK6 = system: T4, MEK6
T4 construct: gene MAP2K6

MELK = system: MELK
MERTK = system: MERTK
MET = system: MET
MINK = system: T5, MINK
T5 construct: gene MINK1

MKK7 = system: MKK7
MKNK1 = system: MKNK1
MKNK2 = system: MKNK2
MLCK = system: T6, MLCK
T6 construct: gene MYLK3

MLK1 = system: T7, MLK1
T7 construct: gene MAP3K9

MLK2 = system: MLK2
MLK3 = system: MLK3
MRCKA = system: MRCKA
MRCKB = system: T8, MRCKB
T8 construct: gene CDC42BPB

MST1R = system: MST1R
MST1 = system: T9, MST1
T9 construct: gene STK4

MST2 = system: T10, MST2
T10 construct: gene STK3
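Further: KINOMEscan kinase panel screen.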

Cc1ccc(C)c(Oc2nccc(-c3c(-c4ccc(F)cc4)ncn3C3CCNCC3)n2)c1.O=C(O)C(F)(F)F.O=C(O)C(F)(F)F.O=C(O)C(F)(F)F [SB-284852]
%Inh (MEK3): 0%
%Inh (MEK4): 0%
%Inh (MEK5): 0%
%Inh (MEK6): 0%
%Inh (MELK): 15%
%Inh (MERTK): 9%
%Inh (MET): 0%
%Inh (MINK): 44%
%Inh (MKK7): 0%
%Inh (MKNK1): 2%
%Inh (MKNK2): 0%
%Inh (MLCK): 0%
%Inh (MLK1): 6%
%Inh (MLK2): 1%
%Inh (MLK3): 0%
%Inh (MRCKA): 97.5%
%Inh (MRCKB): 59%
%Inh (MST1R): 0%
%Inh (MST1): 0%
%Inh (MST2): 25%

O=C1NC(=O)C(c2ccc(Cl)cc2)=C1Nc1cccc(O)c1 [SB-333613]
%Inh (MEK3): 24%
%Inh (MEK4): 27%
%Inh (MEK5): 37%
%Inh (MEK6): 0%
%Inh (MELK): 13%
%Inh (MERTK): 1%
%Inh (MET): 0%
%Inh (MINK): 13%
%Inh (MKK7): 24%
%Inh (MKNK1): 0%
%Inh (MKNK2): 5%
%Inh (MLCK): 0%
%Inh (MLK1): 0%
%Inh (MLK2): 30%
%Inh (MLK3): 7%
%Inh (MRCKA): 52%
%Inh (MRCKB): 0%
%Inh (MST1R): 0%
%Inh (MST1): 0%
%Inh (MST2): 0%

O=C1NC(=O)C(c2ccccc2Cl)=C1Nc1cccc(C(=O)O)c1 [SB-390526]
%Inh (MEK3): 0%
%Inh (MEK4): 11%
%Inh (MEK5): 10%
%Inh (MEK6): 0%
%Inh (MELK): 3%
%Inh (MERTK): 0%
%Inh (MET): 0%
%Inh (MINK): 5%
%Inh (MKK7): 0%
%Inh (MKNK1): 0%
%Inh (MKNK2): 0%
%Inh (MLCK): 5%
%Inh (MLK1): 0%
%Inh (MLK2): 0%
%Inh (MLK3): 0%
%Inh (MRCKA): 0%
%Inh (MRCKB): 5%
%Inh (MST1R): 1%
%Inh (MST1): 0%
%Inh (MST2): 100%

COc1cccc(C2=C(Nc3ccc(SC)cc3)C(=O)NC2=O)c1 [SB-331032]
%Inh (MEK3): 26%
%Inh (MEK4): 16%
%Inh (MEK5): 25%
%Inh (MEK6): 17%
%Inh (MELK): 23%
%Inh (MERTK): 0%
%Inh (MET): 0%
%Inh (MINK): 4%
%Inh (MKK7): 0%
%Inh (MKNK1): 0%
%Inh (MKNK2): 0%
%Inh (MLCK): 0%
%Inh (MLK1): 5%
%Inh (MLK2): 18%
%Inh (MLK3): 16%
%Inh (MRCKA): 0%
%Inh (MRCKB): 17%
%Inh (MST1R): 0%
%Inh (MST1): 54%
%Inh (MST2): 0%

O=C1NC(=O)C(c2ccccc2)=C1Nc1ccc(Cl)c(C(=O)O)c1 [SB-390532]
%Inh (MEK3): 0%
%Inh (MEK4): 28%
%Inh (MEK5): 34%
%Inh (MEK6): 0%
%Inh (MELK): 0%
%Inh (MERTK): 0%
%Inh (MET): 23%
%Inh (MINK): 0%
%Inh (MKK7): 0%
%Inh (MKNK1): 28%
%Inh (MKNK2): 0%
%Inh (MLCK): 0%
%Inh (MLK1): 0%
%Inh (MLK2): 0%
%Inh (MLK3): 0%
%Inh (MRCKA): 37%
%Inh (MRCKB): 0%
%Inh (MST1R): 31%
%Inh (MST1): 0%
%Inh (MST2): 0%

CSc1ccc(NC2=C(c3cccc(Cl)c3)C(=O)NC2=O)cc1 [SB-341528]
%Inh (MEK3): 1%
%Inh (MEK4): 0%
%Inh (MEK5): 49%
%Inh (MEK6): 0%
%Inh (MELK): 44%
%Inh (MERTK): 0%
%Inh (MET): 0%
%Inh (MINK): 0%
%Inh (MKK7): 0%
%Inh (MKNK1): 0%
%Inh (MKNK2): 8%
%Inh (MLCK): 13%
%Inh (MLK1): 0%
%Inh (MLK2): 0%
%Inh (MLK3): 28%
%Inh (MRCKA): 11%
%Inh (MRCKB): 0%
%Inh (MST1R): 10%
%Inh (MST1): 0%
%Inh (MST2): 0%

O=C1NC(=O)C(c2ccc(Cl)cc2)=C1Nc1ccccc1 [SB-317661]
%Inh (MEK3): 49%
%Inh (MEK4): 28%
%Inh (MEK5): 47%
%Inh (MEK6): 16%
%Inh (MELK): 0%
%Inh (MERTK): 2%
%Inh (MET): 0%
%Inh (MINK): 18%
%Inh (MKK7): 35%
%Inh (MKNK1): 0%
%Inh (MKNK2): 0%
%Inh (MLCK): 3%
%Inh (MLK1): 0%
%Inh (MLK2): 12%
%Inh (MLK3): 0%
%Inh (MRCKA): 0%
%Inh (MRCKB): 0%
%Inh (MST1R): 0%
%Inh (MST1): 0%
%Inh (MST2): 0%

Cc1cc(C)cc(Oc2nccc(-c3c(-c4ccc(F)cc4)ncn3C3CCNCC3)n2)c1.O=C(O)C(F)(F)F.O=C(O)C(F)(F)F.O=C(O)C(F)(F)F [SB-284851]
%Inh (MEK3): 12%
%Inh (MEK4): 0%
%Inh (MEK5): 10%
%Inh (MEK6): 0%
%Inh (MELK): 0%
%Inh (MERTK): 4%
%Inh (MET): 13%
%Inh (MINK): 33%
%Inh (MKK7): 0%
%Inh (MKNK1): 0%
%Inh (MKNK2): 0%
%Inh (MLCK): 0%
%Inh (MLK1): 8%
%Inh (MLK2): 8%
%Inh (MLK3): 17%
%Inh (MRCKA): 42%
%Inh (MRCKB): 0%
%Inh (MST1R): 0%
%Inh (MST1): 6%
%Inh (MST2): 1%

O=C(O)c1ccc(-c2nc(-c3ccc(F)cc3)c(-c3ccncc3)[nH]2)cc1 [SB-202620]
%Inh (MEK3): 28%
%Inh (MEK4): 20%
%Inh (MEK5): 66%
%Inh (MEK6): 90%
%Inh (MELK): 26%
%Inh (MERTK): 1%
%Inh (MET): 21%
%Inh (MINK): 15%
%Inh (MKK7): 0%
%Inh (MKNK1): 0%
%Inh (MKNK2): 0%
%Inh (MLCK): 0%
%Inh (MLK1): 22%
%Inh (MLK2): 52%
%Inh (MLK3): 0%
%Inh (MRCKA): 0%
%Inh (MRCKB): 29%
%Inh (MST1R): 0%
%Inh (MST1): 20%
%Inh (MST2): 44%

O=C1NC(=O)C(c2ccc(Cl)cc2)=C1Nc1ccc(O)c(Cl)c1 [SB-405367]
%Inh (MEK3): 12%
%Inh (MEK4): 18%
%Inh (MEK5): 41%
%Inh (MEK6): 0%
%Inh (MELK): 0%
%Inh (MERTK): 0%
%Inh (MET): 0%
%Inh (MINK): 4%
%Inh (MKK7): 0%
%Inh (MKNK1): 0%
%Inh (MKNK2): 29%
%Inh (MLCK): 0%
%Inh (MLK1): 0%
%Inh (MLK2): 48%
%Inh (MLK3): 21%
%Inh (MRCKA): 18%
%Inh (MRCKB): 0%
%Inh (MST1R): 8%
%Inh (MST1): 0%
%Inh (MST2): 23%

CS(=O)(=O)c1ccccc1-c1nc(-c2ccc(F)cc2)c(-c2ccncc2)[nH]1 [SB-213663]
%Inh (MEK3): 40%
%Inh (MEK4): 0%
%Inh (MEK5): 77%
%Inh (MEK6): 0%
%Inh (MELK): 34%
%Inh (MERTK): 18%
%Inh (MET): 1%
%Inh (MINK): 40%
%Inh (MKK7): 0%
%Inh (MKNK1): 40%
%Inh (MKNK2): 13%
%Inh (MLCK): 0%
%Inh (MLK1): 0%
%Inh (MLK2): 0%
%Inh (MLK3): 0%
%Inh (MRCKA): 29%
%Inh (MRCKB): 36%
%Inh (MST1R): 7%
%Inh (MST1): 14%
%Inh (MST2): 0%

COc1ccc(C2=C(Nc3cccc(Cl)c3)C(=O)NC2=O)cc1 [SB-326892]
%Inh (MEK3): 0%
%Inh (MEK4): 0%
%Inh (MEK5): 6%
%Inh (MEK6): 0%
%Inh (MELK): 18%
%Inh (MERTK): 2%
%Inh (MET): 0%
%Inh (MINK): 12%
%Inh (MKK7): 0%
%Inh (MKNK1): 5%
%Inh (MKNK2): 0%
%Inh (MLCK): 0%
%Inh (MLK1): 0%
%Inh (MLK2): 24%
%Inh (MLK3): 0%
%Inh (MRCKA): 0%
%Inh (MRCKB): 0%
%Inh (MST1R): 9%
%Inh (MST1): 8%
%Inh (MST2): 28%

O=C1NC(=O)C(c2ccccc2)=C1Nc1cc(Cl)c(O)c(Cl)c1 [SB-390530]
%Inh (MEK3): 5%
%Inh (MEK4): 10%
%Inh (MEK5): 32%
%Inh (MEK6): 0%
%Inh (MELK): 0%
%Inh (MERTK): 0%
%Inh (MET): 0%
%Inh (MINK): 23%
%Inh (MKK7): 34%
%Inh (MKNK1): 0%
%Inh (MKNK2): 21%
%Inh (MLCK): 7%
%Inh (MLK1): 0%
%Inh (MLK2): 32%
%Inh (MLK3): 0%
%Inh (MRCKA): 0%
%Inh (MRCKB): 0%
%Inh (MST1R): 23%
%Inh (MST1): 2%
%Inh (MST2): 22%

O=C1NC(=O)C(c2ccc(Cl)cc2)=C1Nc1cccc(C(=O)O)c1 [SB-360737]
%Inh (MEK3): 0%
%Inh (MEK4): 15%
%Inh (MEK5): 0%
%Inh (MEK6): 0%
%Inh (MELK): 0%
%Inh (MERTK): 11%
%Inh (MET): 0%
%Inh (MINK): 0%
%Inh (MKK7): 25%
%Inh (MKNK1): 0%
%Inh (MKNK2): 11%
%Inh (MLCK): 0%
%Inh (MLK1): 7%
%Inh (MLK2): 0%
%Inh (MLK3): 0%
%Inh (MRCKA): 18%
%Inh (MRCKB): 0%
%Inh (MST1R): 0%
%Inh (MST1): 5%
%Inh (MST2): 0%

O=C1NC(=O)C(c2ccccc2Cl)=C1Nc1ccccc1 [SB-376715]
%Inh (MEK3): 0%
%Inh (MEK4): 7%
%Inh (MEK5): 30%
%Inh (MEK6): 9%
%Inh (MELK): 23%
%Inh (MERTK): 25%
%Inh (MET): 0%
%Inh (MINK): 0%
%Inh (MKK7): 0%
%Inh (MKNK1): 0%
%Inh (MKNK2): 45%
%Inh (MLCK): 11%
%Inh (MLK1): 0%
%Inh (MLK2): 0%
%Inh (MLK3): 0%
%Inh (MRCKA): 7%
%Inh (MRCKB): 0%
%Inh (MST1R): 44%
%Inh (MST1): 0%
%Inh (MST2): 9%

O=C1NC(=O)c2c1c(-c1ccccc1)cc1[nH]c3ccc(O)cc3c21
%Inh (MEK3): 51%
%Inh (MEK4): 21%
%Inh (MEK5): 98.1%
%Inh (MEK6): 19%
%Inh (MELK): 54%
%Inh (MERTK): 0%
%Inh (MET): 0%
%Inh (MINK): 96.1%
%Inh (MKK7): 0%
%Inh (MKNK1): 28%
%Inh (MKNK2): 11%
%Inh (MLCK): 99.5%
%Inh (MLK1): 91.7%
%Inh (MLK2): 35%
%Inh (MLK3): 55%
%Inh (MRCKA): 14%
%Inh (MRCKB): 21%
%Inh (MST1R): 7%
%Inh (MST1): 0%
%Inh (MST2): 96.9%

Reference: paper PMC5540273 (PLoS ONE, 2017)
